# Experimental data as given in the supplement of paper PMC4894684.
# Counter-ions that a name gives are not always drawn. ± gives the standard deviation of the averaged measurements. Hit rate of the full screen: of about 1,000 compounds, about 15 (2%) showed an effect of 50% or more. The list shows a part of the results.
# System: HFF
# Test: uninfected host cell viability relative to vehicle control; higher = less host cell toxicity
# Conditions: 5 µM; 72 h; oxygen 21 %
# 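Also: confluent HFF monolayers, run in parallel with the Toxoplasma growth screen as a host toxicity counterscreen.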
row,SMILES,uninfected host cell viability
1,CS(=O)(=O)Nc1ccc(Cc2noc(-c3ccc4[nH]cc(CCN)c4c3)n2)cc1,90.2 ± 4.8%
2,OC(Cc1ccncc1)C(Cl)(Cl)Cl (stereo not given),86 ± 7.1%
3,C=CCN1CC[C@]23c4c5ccc(O)c4O[C@H]2C(=O)CC[C@@]3(O)[C@H]1C5 [Naloxone hydrochloride],88.71 ± 0.45%
4,COc1ccc2[nH]cc(C3=CCNCC3)c2c1,80.7 ± 3.2%
5,NP(N)(=O)NC(=O)c1ccc(F)cc1 [Flurofamide],100 ± 3.2%
6,CCOC(=O)c1ncc2[nH]c3ccc(OCc4ccccc4)cc3c2c1COC,103 ± 4.4%
7,Clc1cccc(SC2CCNCC2)n1 [Anpirtoline hydrochloride],96.4 ± 2.5%
8,"c1ccc(CC(c2ccccc2)N2CCCCC2)cc1 (racemic) [(±)-1-(1,2-Diphenylethyl)piperidine maleate]",89.8 ± 6.6%
9,CN1[C@@H]2CC[C@H]1CC(OC(=O)N1Cc3ccccc3NC1=O)C2 (stereo not given in full) [DAU 5884 hydrochloride],89.6 ± 2.4%
10,Cc1onc(O)c1C[C@H](N)C(=O)O,87.8 ± 1.2%
11,CC(C)(C)OC(=O)c1ncn2c1[C@@H]1CCCN1C(=O)c1c(Br)cccc1-2 [Bretazenil],99.07 ± 0.6%
12,O=C(O)CCC(CP(=O)(O)O)C(=O)O (stereo not given) [PMPA (NAALADase inhibitor)],86.7 ± 2.1%
13,c1ccc(C2CC2)c(OCC2=NCCN2)c1 [Cirazoline hydrochloride],87 ± 1.4%
14,C=C(C)CN1CC[C@@]23c4c5ccc(O)c4O[C@H]2c2[nH]c4ccccc4c2C[C@]3(O)C1C5 [SDM25N hydrochloride],90.3 ± 3.4%
15,CC(C)NCC(O)c1ccc(N)c(C#N)c1 (stereo not given) [Cimaterol],84.5 ± 2.1%
16,O=C(Cc1ccc(Cl)c(Cl)c1)N1CCCCC1CN1CCCC1 (stereo not given),98.36 ± 0.96%
17,C#CCOC(=O)C1=CCCN(C)C1 [Arecaidine propargyl ester tosylate],87.1 ± 2.3%
18,c1ccc(CCCN2CCN(CCOC(c3ccccc3)c3ccccc3)CC2)cc1,104 ± 4.1%
19,CC(C)C[C@H]1C(=O)N2CCC[C@H]2[C@]2(O)O[C@](NC(=O)[C@@H]3C=C4c5cccc6[nH]c(Br)c(c56)C[C@H]4N(C)C3)(C(C)C)C(=O)N12 [Bromocriptine mesylate],83.8 ± 2.6%
20,NCCc1c[nH]c2ccc(C(N)=O)cc12 [5-Carboxamidotryptamine maleate],91.33 ± 0.078%
21,O=C(CCCN1CCC2(CC1)C(=O)N(Cc1cccc(F)c1)CN2c1ccccc1)c1ccc(F)cc1 [3'-Fluorobenzylspiperone maleate],78.9 ± 3.1%
22,CN1CCN(c2ccc3ccccc3n2)CC1 [N-Methylquipazine dimaleate],84 ± 0.99%

row,SMILES,uninfected host cell viability
1,"Clc1ccc(N2CCN(Cc3c[nH]c4ncccc34)CC2)cc1 [L-745,870 trihydrochloride]",102 ± 3.9%
2,N[C@H](C(=O)O)c1cc(O)no1 [Ibotenic acid],85 ± 3.7%
3,CC(=O)NCCc1c[nH]c2ccccc12 [N-Acetyltryptamine],87.1 ± 1.6%
4,FC(F)(F)c1cccc(C2=CCN(CCc3ccc4ccccc4c3)CC2)c1 [Xaliproden hydrochloride],91.89 ± 0.52%
5,O=c1ccc2[nH]cc(C3=CCNCC3)c2[nH]1,93.5 ± 2.5%
6,O=C(O)/C=C/CO [trans-4-Hydroxycrotonic acid],89.48 ± 0.44%
7,O=c1[nH]c2ccccc2n1C1CCN(CCCC(c2ccc(F)cc2)c2ccc(F)cc2)CC1 [Pimozide],84.4 ± 5.2%
8,N=C(NCc1ccc(Cl)cc1)SCCCc1c[nH]cn1 [Clobenpropit dihydrobromide],86.2 ± 1.5%
9,COc1cc(N)c(Cl)cc1C(=O)NC1CN2CCC1CC2 (stereo not given) [Zacopride hydrochloride],87.6 ± 1.2%
10,Cc1ccc2c(c1)C1(CCN(CCc3nc(-c4ccccc4)oc3C)CC1)OC(=O)N2,77 ± 2.1%
11,C/C(O)=C(\C#N)C(=O)Nc1cc(Br)ccc1Br,85 ± 3.8%
12,C[C@@]12C(=O)OC(=O)[C@]1(C)[C@H]1CC[C@@H]2O1 [Cantharidin],19.7 ± 1.6%
13,Ic1cncc(OC[C@@H]2CCN2)c1,85.8 ± 0.95%
14,CCOc1cncc(/C=C/CCNC)c1 [TC 2559 difumarate],90.1 ± 2.3%
15,"C=CCN1CC[C@]2(C)c3cc(O)ccc3C[C@H]1C2C (single isomer, unassigned; (+))",89 ± 6.4%
16,O=C1C2CCN(CC2)C1(CO)CO,91.4 ± 6.9%
17,c1ccc2sc(C3(N4CCCCC4)CCCCC3)cc2c1 [BTCP maleate],99.958 ± 0.065%
18,C(=C\c1ccccc1)/CN1CCN(CCOC(c2ccccc2)c2ccccc2)CC1,98.9 ± 1.6%
19,CCCN[C@@H]1CCc2c(OC)cccc2[C@@H]1C [(+)-AJ 76 hydrochloride],95.4 ± 1.7%
20,CN1C(=O)CCS(=O)(=O)C1c1ccc(Cl)cc1 (stereo not given) [Chlormezanone],88.5 ± 4.5%
21,CCCN1CCO[C@@H]2c3cc(O)ccc3OC[C@H]21,94.37 ± 0.47%
22,CCOC(=O)c1ncn2c1CN(C)C(=O)c1cc(N=[N+]=[N-])ccc1-2,94.38 ± 0.56%

row,SMILES,uninfected host cell viability
1,CC1=NN=C(c2ccc(N)cc2)c2cc3c(cc2C1)OCO3,97.82 ± 0.92%
2,Cn1c2c(c3ccccc31)CCNCC2,84.3 ± 4.7%
3,CC(C)(c1ccc(OCC2CO2)cc1)c1ccc(OCC2CO2)cc1 (stereo not given),88.42 ± 0.58%
4,CC(CN)CC(=O)O (stereo not given) [3-Methyl-GABA],84.48 ± 0.2%
5,Fc1ccc(C(OCCN2CCN(CCCc3ccccc3)CC2)c2ccc(F)cc2)cc1,86.9 ± 1.9%
6,O=C1CSC(c2ccccc2Cl)c2cc(Cl)ccc2N1 (stereo not given),81.9 ± 2.8%
7,CCCOc1ccc2[nH]cc(C3=CCNCC3)c2n1,81.5 ± 3.4%
8,CC(C)n1cnc2c(C(=O)N[C@H]3CN4CCC3CC4)cc(Cl)cc21,94.48 ± 0.3%
9,O=C1CCCN1CC#CCN1CCCC1 [Oxotremorine sesquifumarate],118 ± 29%
10,COC(=O)/C=C/C(=O)N[C@@H]1CC[C@@]2(O)[C@H]3Cc4ccc(O)c5c4[C@@]2(CCN3CC2CC2)[C@H]1O5 [β-Funaltrexamine hydrochloride],89.2 ± 6.3%
11,"BrC1C(Br)C(Br)C(Br)C(Br)C1Br (stereo not given) [1,2,3,4,5,6-Hexabromocyclohexane]",97.3 ± 1.8%
12,Oc1ccc2c3c1O[C@H]1c4c(c5ccccc5n4Cc4ccccc4)C[C@@]4(O)C(C2)N(CC2CC2)CC[C@]314 [N-Benzylnaltrindole hydrochloride],79 ± 2%
13,CC(N)Cc1c[nH]c2ccc(O)cc12 (stereo not drawn) [α-Methyl-5-hydroxytryptamine maleate],82.68 ± 0.23%
14,COc1ccc(CCN2CCC(Nc3nc4ccccc4n3Cc3ccc(F)cc3)CC2)cc1 [Astemizole],80.6 ± 2.3%
15,Oc1cc2c(cc1O)[C@H]1c3ccccc3CN[C@@H]1CC2 (racemic) [Dihydrexidine hydrochloride],87 ± 4.8%
16,CCCN(CCC)C1CCc2ccc(O)cc2C1 (stereo not given) [7-Hydroxy-DPAT hydrobromide],101 ± 3%
17,c1ccc2c(c1)[I+]c1ccccc1-2 [Diphenyleneiodonium chloride],30.8 ± 3.4%
18,O=C(O)c1ccc2[nH]cc(CCCCN3CC=C(c4ccccc4)CC3)c2c1 [Carmoxirole hydrochloride],87.2 ± 3.2%
19,CCN1C[C@]2(COC(=O)c3ccccc3N3C(=O)C[C@H](C)C3=O)CC[C@H](OC)[C@@]34[C@@H]5C[C@H]6[C@H](OC)[C@@H]5[C@](O)(C[C@@H]6OC)[C@](O)([C@@H](OC)[C@H]23)[C@@H]14 [Methyllycaconitine citrate],99.5 ± 1.8%
20,CCCN(CCC)C1CCc2cccc(O)c2C1 (stereo not given) [8-Hydroxy-DPAT hydrobromide],88 ± 9%
21,CC(C)(Cc1c[nH]c2ccc(Cl)cc12)NCCOc1ccccc1OCC1CC1,66.8 ± 6.3%
22,Cc1ccc(C[N+](C)(C)C)o1 [5-Methylfurmethiodide],87.1 ± 4.2%

row,SMILES,uninfected host cell viability
1,Cc1nc(N)sc1CCN [Amthamine dihydrobromide],98.27 ± 0.58%
2,C[C@@H]1O[C@@H](O[C@H]2C[C@@H](O)[C@]3(CO)[C@H]4[C@H](O)C[C@]5(C)[C@@H](C6=CC(=O)OC6)CC[C@]5(O)[C@@H]4CC[C@]3(O)C2)[C@H](O)[C@H](O)[C@H]1O [Ouabain],62.2 ± 5%
3,C[C@@H](N)Cc1cnc[nH]1 [(R)-(-)- α-Methylhistamine dihydrobromide],89.841 ± 0.031%
4,N[C@@]1(C(=O)O)CC[C@@H](C(=O)O)C1,96.2 ± 4.8%
5,Cn1cc(C(=O)C(=O)N[C@H]2CN3CCC2CC3)c2ccccc21,83 ± 3.1%
6,C[C@H](N)Cn1ccc2cc(F)c(Cl)cc21 [Ro 60-0175 fumarate],87.5 ± 1.7%
7,CCN(CC)CCO[C@H]1CC[C@@]2(C)C(=CC[C@@H]3[C@@H]2CC[C@]2(C)C(=O)CC[C@@H]32)C1,104 ± 3.5%
8,CCCCC/C=C\C/C=C\C/C=C\C/C=C\CCCC(=O)Nc1ccc(O)cc1,81.6 ± 2%
9,CCNC(=O)[C@H]1O[C@@H](n2cnc3c(N)ncnc32)[C@H](O)[C@@H]1O,100 ± 4.7%
10,COc1cc2c(cc1OC)C1CC(=O)C(CC(C)C)CN1CC2 (stereo not given) [Tetrabenazine],88.8 ± 4%
11,CN(C(=O)Cc1ccccc1)C(CN1CCCC1)c1ccccc1 (stereo not given) [N-MPPP Hydrochloride],88.26 ± 0.26%
12,Cc1cc(SCc2sc(-c3ccc(C(F)(F)F)c(F)c3)nc2C)ccc1OCC(=O)O,101 ± 8.5%
13,Cc1[nH]c2ccc(Cl)cc2c1C1=CCNCC1,75.1 ± 2%
14,Oc1ccc2c3c1O[C@H]1c4oc5ccccc5c4C[C@@]4(O)[C@@H](C2)N(CC2CC2)CC[C@]314 [Naltriben mesylate],90.1 ± 4.9%
15,COc1ccc(C(=O)c2c(C)n(CCN3CCOCC3)c3cc(I)ccc23)cc1,93.8 ± 0.31%
16,NCc1cc(O)no1 [Muscimol],83 ± 4.4%
17,Cc1nnc2ccc(-c3cccc(C(F)(F)F)c3)nn12,88.4 ± 4.6%
18,CCCN(CCC)[C@@H]1CCc2c(OC)cccc2[C@@H]1C [(+)-UH 232 maleate],85.8 ± 2.9%
19,CO[C@]12C[C@@H](COC(=O)c3cncc(Br)c3)CN(C)[C@@H]1Cc1cn(C)c3cccc2c13 [Nicergoline],84.2 ± 4.1%
